# Data as given in the supplement of paper PMC8728848.
# The list shows a part of the results.
# B1: PkBDPgamma (Plasmodium knowlesi) (protein)
# chain: SAINQIFLQNNVMDKCNDKRKRGERDWDCPTEKDVCIPDRRYQLCMMEITNLVDTDTHFHSDIIFRKSYSRRRLIYDVGGRGDLLLKKYNNVYSEDLCKDIKWSLQDFGDIIMGTDMEGIGYSLVVQNNLRSIFGTGTSAELDRKKWWNDHKKDIWKAMILSVKEKNRYSAWNCKEDVQIKVEPQIYRWIREWGRDYMSEFREQRRKLNEKCEDKLYYSTMLICTLPPCNNACKSYDEWITGKKKQWDVLSTKFSSVKKAQKIETENIARAYDILKQELNGFNEVTFENEINKRDKLYNYFCVCIVQEARKNTQENVKNVGSGVESKAPSSNPINEAVKSSSGEGKVQEDSAHRSVNEGEGKSSTNEADPGSQPGAAASGGGSGGGTGGGVDLAPQMLRELQETNAALQDVRELLRQQVKEITFLKNTVMECDACGGPLDRNLPPLAPLGPTGGWSHPQFEK
# Tests used:
# Assay in all cases: glycan array binding signal (z-score within array); higher = stronger binding
# Details in all cases: glycan notation: IUPAC condensed, linker removed
# [1] = target: GlcNAc(b1-4)GlcNAc(b1-4)GlcNAc(b1-4)GlcNAc(b1-4)GlcNAc
# Outline: (§1)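 From the Consortium for Functional Glycomics database, 3228 arrays were curated, keeping only those whose protein sequence was available. Binding is given as a within-array Z-score averaged across arrays sharing a protein sequence and across linkers. Negative Z-scores can be read as non-binding.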
# [2] = target: GlcNAc(b1-4)GlcNAc(b1-4)GlcNAc(b1-4)GlcNAc(b1-4)GlcNAc(b1-4)GlcNAc
# Outline: as §1
# [3] = target: GlcNAc(b1-4)[GlcNAc(b1-6)]GalNAc
# Outline: as §1
# [4] = target: GlcNAc(b1-6)Gal(b1-4)GlcNAc
# Outline: as §1
# [5] = target: GlcNAc(b1-6)GalNAc
# Outline: as §1
# [6] = target: GlcNAc6S(b1-3)Gal(b1-4)GlcNAc
# Outline: as §1
# [7] = target: Kdn(a2-3)Gal(b1-3)GalNAc
# Outline: as §1
# [8] = target: Kdn(a2-3)Gal(b1-3)GlcNAc
# Outline: as §1
# [9] = target: Kdn(a2-3)Gal(b1-4)Glc
# Outline: as §1
# [10] = target: Kdn(a2-3)Gal(b1-4)GlcNAc
# Outline: as §1
# [11] = target: Kdn(a2-3)Gal(b1-4)[Fuc(a1-3)]GlcNAc
# Outline: as §1
# [12] = target: Kdn(a2-6)Gal(b1-4)GlcNAc
# Outline: as §1
# [13] = target: Man(a1-2)Man(a1-2)Man(a1-3)Man
# Outline: as §1
# [14] = target: Man(a1-2)Man(a1-2)Man(a1-6)[Man(a1-3)]Man
# Outline: as §1
# [15] = target: Man(a1-2)Man(a1-3)Man
# Outline: as §1
# [16] = target: Man(a1-2)Man(a1-3)[Man(a1-2)Man(a1-6)]Man
# Outline: as §1
# [17] = target: Man(a1-2)Man(a1-3)[Man(a1-2)Man(a1-6)]Man(a1-6)[Man(a1-2)Man(a1-2)Man(a1-3)]Man
# Outline: as §1
# [18] = target: Man(a1-2)Man(a1-3)[Man(a1-2)Man(a1-6)]Man(a1-6)[Man(a1-2)Man(a1-2)Man(a1-3)]Man(b1-4)GlcNAc(b1-4)GlcNAc
# Outline: as §1
# [19] = target: Man(a1-2)Man(a1-3)[Man(a1-6)]Man(a1-6)[Man(a1-2)Man(a1-3)]Man(b1-4)GlcNAc(b1-4)GlcNAc
# Outline: as §1
# [20] = target: Man(a1-2)Man(a1-6)[Man(a1-3)]Man(a1-6)[Man(a1-2)Man(a1-2)Man(a1-3)]Man
# Outline: as §1
# [21] = target: Man(a1-2)Man(a1-6)[Man(a1-3)]Man(a1-6)[Man(a1-2)Man(a1-2)Man(a1-3)]Man(b1-4)GlcNAc(b1-4)GlcNAc
# Outline: as §1
# [22] = target: Man(a1-3)[Man(a1-6)]Man
# Outline: as §1
# [23] = target: Man(a1-3)[Man(a1-6)]Man(a1-6)[Man(a1-2)Man(a1-3)]Man(b1-4)GlcNAc(b1-4)GlcNAc
# Outline: as §1
# [24] = target: Man(a1-3)[Man(a1-6)]Man(a1-6)[Man(a1-3)]Man
# Outline: as §1
# [25] = target: Man(a1-3)[Man(a1-6)]Man(a1-6)[Man(a1-3)]Man(b1-4)GlcNAc(b1-4)GlcNAc
# Outline: as §1
# [26] = target: Man(a1-3)[Man(a1-6)]Man(b1-4)GlcNAc(b1-4)GlcNAc
# Outline: as §1
# [27] = target: Man(a1-3)[Man(a1-6)]Man(b1-4)GlcNAc(b1-4)[Fuc(a1-6)]GlcNAc
# Outline: as §1
# [28] = target: Man(a1-6)Man
# Outline: as §1
# [29] = target: Man(b1-4)GlcNAc
# Outline: as §1
# [30] = target: MurNAc(b1-4)GlcNAc
# Outline: as §1
# [31] = target: Neu5Ac(a2-3)Gal
# Outline: as §1
# [32] = target: Neu5Ac(a2-3)Gal(b1-3)GalNAc
# Outline: as §1
# [33] = target: Neu5Ac(a2-3)Gal(b1-3)GalNAc(b1-3)Gal(a1-4)Gal(b1-4)Glc
# Outline: as §1
# [34] = target: Neu5Ac(a2-3)Gal(b1-3)GalNAc(b1-4)Gal(b1-4)Glc
# Outline: as §1
# [35] = target: Neu5Ac(a2-3)Gal(b1-3)GalNAc(b1-4)[Neu5Ac(a2-3)]Gal(b1-4)Glc
# Outline: as §1
# [36] = target: Neu5Ac(a2-3)Gal(b1-3)GalNAc(b1-4)[Neu5Ac(a2-8)Neu5Ac(a2-3)]Gal(b1-4)Glc
# Outline: as §1
# [37] = target: Neu5Ac(a2-3)Gal(b1-3)GalNAc6S
# Outline: as §1
binder,measurement,setting,value
B1,glycan array binding signal (z-score),[1],-0.214
same,glycan array binding signal (z-score),[2],-0.371
same,glycan array binding signal (z-score),[3],0.123
same,glycan array binding signal (z-score),[4],0.306
same,glycan array binding signal (z-score),[5],0.044
same,glycan array binding signal (z-score),[6],0.104
same,glycan array binding signal (z-score),[7],0.008
same,glycan array binding signal (z-score),[8],-0.196
same,glycan array binding signal (z-score),[9],-0.465
same,glycan array binding signal (z-score),[10],0.127
same,glycan array binding signal (z-score),[11],-0.399
same,glycan array binding signal (z-score),[12],0.227
same,glycan array binding signal (z-score),[13],-0.441
same,glycan array binding signal (z-score),[14],0.045
same,glycan array binding signal (z-score),[15],-0.276
same,glycan array binding signal (z-score),[16],-0.09
same,glycan array binding signal (z-score),[17],-0.391
same,glycan array binding signal (z-score),[18],-0.427
same,glycan array binding signal (z-score),[19],-0.597
same,glycan array binding signal (z-score),[20],-0.277
same,glycan array binding signal (z-score),[21],-0.129
same,glycan array binding signal (z-score),[22],0.004
same,glycan array binding signal (z-score),[23],-0.149
same,glycan array binding signal (z-score),[24],0.071
same,glycan array binding signal (z-score),[25],0.232
same,glycan array binding signal (z-score),[26],-0.114
same,glycan array binding signal (z-score),[27],-0.208
same,glycan array binding signal (z-score),[28],-0.224
same,glycan array binding signal (z-score),[29],-0.344
same,glycan array binding signal (z-score),[30],-0.109
same,glycan array binding signal (z-score),[31],-0.679
same,glycan array binding signal (z-score),[32],0.062
same,glycan array binding signal (z-score),[33],0.186
same,glycan array binding signal (z-score),[34],-0.635
same,glycan array binding signal (z-score),[35],-0.377
same,glycan array binding signal (z-score),[36],-0.132
same,glycan array binding signal (z-score),[37],-0.295
